# Measured values from paper PMC6919601, “Identification of Plasmodium dipeptidyl aminopeptidase allosteric inhibitors by high throughput screening” (PLoS ONE, 2019).
# Screen size: about 110,000 compounds; about 230 (0.21%) showed an effect of 50% or more. This is one part of the list.
# Biological target: DPAP1 (Plasmodium falciparum, UniProt Q8IIJ9)
# Assay: primary screen, percent inhibition; read by cleavage of a fluorogenic dipeptide substrate; higher = more effect of the substance
# Design: species or system P. falciparum D10 trophozoite lysates; single well
# 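Further: 30 min substrate incubation versus DMSO and 10 µM JCP410 controls.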
# Sequence of DPAP1 (Q8IIJ9 whole entry, looked up): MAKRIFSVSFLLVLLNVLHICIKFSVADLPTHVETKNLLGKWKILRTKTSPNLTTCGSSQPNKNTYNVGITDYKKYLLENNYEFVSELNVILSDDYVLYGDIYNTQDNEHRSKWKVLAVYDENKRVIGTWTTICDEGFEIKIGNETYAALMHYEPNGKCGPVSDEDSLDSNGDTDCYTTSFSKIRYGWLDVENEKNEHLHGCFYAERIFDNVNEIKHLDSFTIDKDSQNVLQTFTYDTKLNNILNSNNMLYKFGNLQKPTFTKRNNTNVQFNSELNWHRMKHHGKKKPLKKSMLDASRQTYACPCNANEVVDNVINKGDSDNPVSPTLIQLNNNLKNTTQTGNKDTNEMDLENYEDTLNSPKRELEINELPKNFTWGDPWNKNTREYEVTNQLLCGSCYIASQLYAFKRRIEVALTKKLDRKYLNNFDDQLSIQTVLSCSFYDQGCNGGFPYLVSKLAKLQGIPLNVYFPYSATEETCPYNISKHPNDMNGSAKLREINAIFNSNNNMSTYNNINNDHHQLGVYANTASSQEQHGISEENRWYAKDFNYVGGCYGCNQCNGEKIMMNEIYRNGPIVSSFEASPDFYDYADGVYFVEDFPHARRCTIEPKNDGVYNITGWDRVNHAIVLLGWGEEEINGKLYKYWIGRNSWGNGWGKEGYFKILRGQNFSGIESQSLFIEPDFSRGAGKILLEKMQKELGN
row,SMILES,% Inhibition @ 10 uM [%]
1,COc1cccc(NC(=O)c2ccc3c(c2)C(=O)N(C2CCCCC2)C3=O)c1,-12.7
2,COc1ccc(N2CCN(CC(O)COc3ccc(Cl)cc3)CC2)cc1 (centres unmarked),2.22
3,Cc1ccc2ncc(S(=O)(=O)c3ccccc3)c(N3CCC(C)CC3)c2c1,-5.54
4,CCc1ccc([N+]2=C3SCCCN3C(O)(c3cccs3)C2)cc1 (centres unmarked),1.91
5,O=C(Nc1ccc2c(c1)OCO2)c1ccccc1Br,2.64
6,CCOC(=O)c1ccc(NC(=O)c2ccc([N+](=O)[O-])cc2)cc1,-1.76
7,Cc1oc(-c2ccc(Cl)cc2)nc1CS(=O)CC(=O)NC1CCCc2ccccc21 (centres unmarked),-1.05
8,CCCC(=O)Nc1ccc(S(=O)(=O)N2CCCC2)cc1,-2.83
9,Cc1ccc(NS(=O)(=O)c2c(C)cc(C)cc2C)c(C)c1,2.26
10,Cc1ccc(S(=O)(=O)N(CCC#N)C2CCCCC2)cc1,3.32
11,Cc1cc(C)nc(/N=C(\N)C2=C(O)CC(C)(C)CC2=O)n1,-5.28
12,COc1ccc(Nc2nc(-c3sc(C)nc3C)cs2)cc1,5.24
13,O=C1NC(=O)N(c2cccc3ccccc23)C(=O)/C1=C\c1ccc2c(c1)OCO2,2.7
14,Cc1c(C)c2cc3c(C(C)(C)C)coc3cc2oc1=O,-2.92
15,CNc1nc2c(c(=O)[nH]c(=O)n2C)n1CCCc1ccccc1,-3.83
16,CC(C)c1ccc(NC(=O)c2ccncc2)cc1,0.812
17,Cc1ccc(N2C(=O)NC(=O)/C(=C/Nc3ccccc3C(=O)O)C2=O)cc1,0.76
18,CCN(CC)CCCNC(=O)c1ccc2c(c1)sc1nc(-c3ccc(F)cc3)cn12,10.9
19,CC1CCc2c(sc(NC(=O)/C=C/c3ccc(F)cc3)c2C#N)C1 (centres unmarked),1.25
20,N#CCc1nc(-c2ccc(-c3ccccc3)cc2)cs1,1.7
21,CCn1cc(C2=NOC(C(=O)NCc3ccc4c(c3)OCO4)C2)c(C)n1 (centres unmarked),-4.85
22,COc1ccc(/C=C2\N=C(c3ccc(Cl)cc3Cl)OC2=O)cc1OC,-1.51
23,CN1CCN(c2ncnc3c2cnn3-c2ccc(Cl)cc2)CC1,-6.68
24,CCN1CCC(N2CCN(CCOCCO)CC2)CC1,3.48
25,COc1cc(OC)cc(C(=O)N(CCCN(C)C)c2nc3c(C)c(C)ccc3s2)c1,0.49

row,SMILES,% Inhibition @ 10 uM [%]
1,COc1ccc(C(=O)NCC23C=CC(O2)C2C(=O)N(Cc4ccccc4)C(=O)C23)cc1 (centres unmarked),1.44
2,CC(C)C[C@@H](C(=O)NCC#N)c1cccc(-c2ccc(C3(C)CCN(C)CC3)cc2)c1,1.7
3,O=C(CN1C(=O)c2cccc3cccc1c23)N1CCN(c2cccc(Cl)c2)CC1,-2.74
4,CCN(CC)CCNC(=O)CSc1c2c(nc3cc(Cl)ccc13)CCCC2,-1.7
5,CC(=O)Nc1ccc(C2C(C#N)=C(N)OC3=C2C(=O)CC(C)C3)cc1 (centres unmarked),-4.94
6,Cc1cccc(C(=O)Nc2c(-c3cccs3)nc3cc(C)ccn23)c1,6.03
7,Cc1[nH]c2ccc(C(=O)N3CCN(Cc4ccccc4)CC3)cc2c1C,5.08
8,CCOC(=O)N1CCN(C(=O)C2CCC(C/N=c3/c(N4CCCCC4)c(O)c3=O)CC2)CC1 (centres unmarked),1.22
9,Cc1ccsc1/C=C1\N=C(c2ccccc2Cl)OC1=O,4.54
10,Cc1nc2nc(SCC(=O)NCc3ccco3)nn2c(C)c1Cc1c(F)cccc1Cl,9.37
11,CCOC(=O)c1c2n(c3cc(Cl)c([N+](=O)[O-])cc3c1=O)CCC2,5.55
12,O=C(O)CSc1cccnc1Sc1ccc(Cl)cc1,-1.06
13,O=C(c1sc2cc(F)ccc2c1Cl)N1CCCCC1,1.84
14,O=C(c1ccco1)N(Cc1ccc(Cl)cc1)C1CCS(=O)(=O)C1 (centres unmarked),-1.94
15,CCn1c2ccccc2c2cc(C3NC(=O)NC(C)=C3C(=O)OCCSC)ccc21 (centres unmarked),-0.703
16,O=C(CSc1nnc(-c2cccnc2)o1)c1c[nH]c2ccccc12,-3.21
17,Clc1ccc(N2N=C(/C=C/c3ccccc3)CC2c2ccccc2)cc1Cl (centres unmarked),0.716
18,CC1=C(C(=O)Nc2ccc(Br)cc2)C(c2ccccc2)NC(=O)N1 (centres unmarked),-2.18
19,O=C1CCC(=O)N1CC(=O)N1CCCc2ccccc21,7.64
20,COCCCNC(=O)COc1cc(C)ccc1C,6.86
21,CCc1ccc(NC(=O)Cn2cnc3ccccc3c2=O)cc1,-1.22
22,CCCN(CCC)CCCNC(=O)CCN1N=C(c2ccc(OC)cc2)CCC1=O,-0.971
23,CCOC(=O)c1c(C)n(-c2ccc(C)cc2)c2ccc(OCC(O)Cn3nc(C)cc3C)cc12 (centres unmarked),-0.278
24,CCNc1nc2nc(O)c3c(c2s1)OC(N)=C(C#N)C3c1ccc(C)cc1 (centres unmarked),-2.83
25,COc1ccc(C)cc1N(CC(=O)NC1CC2CCC1C2)S(C)(=O)=O (centres unmarked),1.21
